The other results are listed elsewhere or left out.
T1: UNK ZnF1-6 (called full-length) (human, UniProt Q9C0B0 30-357)
T1 sequence: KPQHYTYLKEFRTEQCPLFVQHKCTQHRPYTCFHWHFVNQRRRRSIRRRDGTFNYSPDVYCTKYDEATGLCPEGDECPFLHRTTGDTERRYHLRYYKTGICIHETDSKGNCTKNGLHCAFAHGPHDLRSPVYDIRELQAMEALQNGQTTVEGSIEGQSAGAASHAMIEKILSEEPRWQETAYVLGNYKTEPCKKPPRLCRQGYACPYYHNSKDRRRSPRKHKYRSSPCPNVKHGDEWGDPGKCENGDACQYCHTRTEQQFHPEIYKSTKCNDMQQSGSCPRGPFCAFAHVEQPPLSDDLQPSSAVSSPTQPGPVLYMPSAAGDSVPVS

B1: chr17:58495858:58495960:-|CDS|ENSG00000108389|unk|total|mutant (ssRNA)
RNA: GGGAGUUCUACAGUCCGACGAUCAGAAGAGACUAAGGGACCAGCUCCAGACCCUUCUGCCCAGGAUGAGCUGGGCCGGACUUCCGAUGGCACCGGGGAGCCACCUGAACAUUGUCCUGAAACAGAAGCUGUCAGUGCACUCUCCAACAGAGGAUUGAGCAUCA
B2: ENSG00000198589:be:win_1501|CDS|ENSG00000198589|bound_else_gene|NA|bound_elsewhere_windowed (ssRNA)
RNA: GGGAGUUCUACAGUCCGACGAUCUUGCUGGCCUUUAUCAUGGAAUUGUUGAAGAACUCAAUUGCUAUGCAGGAACAGAUGCUUGCCUGUAAGGGCUUCUUGGUAAUAGGAUAUAGCCUUGAAAAGUCUUCCAAAUCUCAUGUUCAACAGAGGAUUGAGCAUCA
B3: chr9:26926431:26926536:-|CDS|ENSG00000137055|unk|FALSE|bound_elsewhere (ssRNA)
RNA: GGGAGUUCUACAGUCCGACGAUCAGAGGUUUGGCAAUUUUGAGUGAAACAGAAUUUCUUUCCUGUGCAAAUGAUGCUAGUAUUAGAAGGUGGCAAAUCACUGGCGAGUGUCUUGAAGUAUAUUAUGGACAUACAAAUUAUAUUCAACAGAGGAUUGAGCAUCA
B4: chr7:92618090:92618217:-|CDS|ENSG00000105810|unk|FALSE|bound_elsewhere (ssRNA)
RNA: GGGAGUUCUACAGUCCGACGAUCUAUGUCCAUGUGUGGUUCUUUUGUAGCGUGAUUGGACUCCCAGGAGAAGAAGACUGGCCUAGAGAUGUUGCCCUUCCCAGGCAGGCUUUUCAUUCAAAAUCUGCCCAACCAAUUGAGAAGCAACAGAGGAUUGAGCAUCA
B5: chr1:32075697:32075801:+|CDS|ENSG00000121775|unk|FALSE|unique (ssRNA)
RNA: GGGAGUUCUACAGUCCGACGAUCCGAGCUGCCAGUCCAGGCCAGCAUUCUGUUUGAGUUGCAGCUCUUCUUCUGCCAGCUCAUAGCACUCUUCGUCCACUACAUCAACAUCUACAAGACAGUGUGGUGGUAUCCACCUUCCCACAACAGAGGAUUGAGCAUCA
B6: chrX:24560996:24561098:-|3pUTR|ENSG00000102230|unk|FALSE|unique (ssRNA)
RNA: GGGAGUUCUACAGUCCGACGAUCACUCAAGACUUUUUACAGAGAACUGUGGGCUCAGUUAUGAUCUCAGCAUCUGAAUGGUCUAGGUAGUAUCACCAUUAUCUCUGGCCCUAGGUUUGCCAAGUAGGAUGAAGACUCUAAGUGCAACAGAGGAUUGAGCAUCA

biological target: T1, UNK ZnF1-6 (called full-length); experiment: nsRBNS (natural sequence RNA bind-n-seq); RBNS binding buffer (assumed for nsRBNS): 25 mM Tris pH 7.5, 150 mM KCl, 3 mM MgCl2, 0.01% Triton X-100, 500 ug/ml BSA, 20 U/ml SUPERase-In, 4 C; UNK is unkempt and MSI1 is Musashi-1; names of the RNAs are library labels; protein concentration not given here; high values mean tight binding

Question: How did the binding signal turn out when B1 was run?
Answer: 0.759 enrichment R

Question: For B2, which binding signal is on record?
Answer: 0.416 enrichment R

Question: For B3, which binding signal is on record?
Answer: 0.796 enrichment R

Question: Which binding signal does the source give for B4 here?
Answer: 0.56 enrichment R

Question: B5 was tested. Which binding signal did it give?
Answer: 0.551 enrichment R

Question: Which binding signal does the source give for B6 here?
Answer: 0.626 enrichment R

— publication PMC12136788
